Measurements from publication PMC12820563, “FoxP3 forms a head-to-head dimer in vivo and stabilizes its multimerization on adjacent microsatellites”.
The other results are listed elsewhere or left out.

Biological target: T1, MBP-FoxP1dN (Mus musculus, UniProt P58462 326-579)
T1 sequence: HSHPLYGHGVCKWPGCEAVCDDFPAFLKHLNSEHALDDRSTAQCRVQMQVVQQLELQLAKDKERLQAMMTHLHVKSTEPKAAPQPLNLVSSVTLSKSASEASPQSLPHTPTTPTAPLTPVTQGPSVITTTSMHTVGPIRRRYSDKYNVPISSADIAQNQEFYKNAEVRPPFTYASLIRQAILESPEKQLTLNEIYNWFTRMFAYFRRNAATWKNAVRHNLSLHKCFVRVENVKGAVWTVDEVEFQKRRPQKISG
Assay: PD-seq (MBP pull-down with sequencing); 20 mM Tris-HCl pH 7.5, 100 mM NaCl, 1.5 mM MgCl2, 0.4 uM protein, 0.1 uM dsDNA library, 30 min, room temperature, amylose pull-down; high values mean tight binding
Conditions: protein: recombinant; tags: His6-MBP; chain copies: 2; dsDNA, one strand shown
Method in brief: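 A degenerate double-stranded DNA library, filled in with Klenow, was added at 0.1 µM to 0.4 µM His6-MBP-tagged mouse FoxP3 or FoxP1 fragment lacking the N-terminus, expressed in E. coli. Incubation lasted 30 min at room temperature in Tris pH 7.5 buffer with NaCl and MgCl2, after which complexes were collected on amylose resin, washed three times, digested with proteinase K to free the DNA, barcoded by PCR and sequenced by Illumina. Binding is the pooled-replicate reads-per-million enrichment of pull-down over input.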

Sequence	binding signal
GATGATTGTTCTCCCAGCTGATGAATTGGGCAAGTCGAGTAAACAAATTTTCCTAATCTTTCTGTTCAAGCGCCATCTAC	0.81 RPM ratio (pull-down/input)
GATGATTGTTCTCCCAGCTGATGAATTTCTGTACTCGAGTAAACAAATTTTCCTAATCTTTCTGTTCAAGCGCCATCTAC	0.909 RPM ratio (pull-down/input)
GATGATTGTTCTCCCAGCTGATGAATTATCACGATCGAGTAAACAAATTTTCCTAATCTTTCTGTTCAAGCGCCATCTAC	0.895 RPM ratio (pull-down/input)
GATGATTGTTCTCCCAGCTGATGAATTCCTCGAATCGAGTAAACAAATTTTCCTAATCTTTCTGTTCAAGCGCCATCTAC	0.891 RPM ratio (pull-down/input)
GATGATTGTTCTCCCAGCTGATGAATTCTTAATCTCGAGTAAACAAATTTTCCTAATCTTTCTGTTCAAGCGCCATCTAC	0.925 RPM ratio (pull-down/input)
GATGATTGTTCTCCCAGCTGATGAATTCCAGGGTTCGAGTAAACAAATTTTCCTAATCTTTCTGTTCAAGCGCCATCTAC	0.729 RPM ratio (pull-down/input)
GATGATTGTTCTCCCAGCTGATGAATTCAACGATTCGAGTAAACAAATTTTCCTAATCTTTCTGTTCAAGCGCCATCTAC	0.92 RPM ratio (pull-down/input)
GATGATTGTTCTCCCAGCTGATGAATTCGTTACTTCGAGTAAACAAATTTTCCTAATCTTTCTGTTCAAGCGCCATCTAC	1.01 RPM ratio (pull-down/input)
GATGATTGTTCTCCCAGCTGATGAATTGAAATAGTCGAGTAAACAAATTTTCCTAATCTTTCTGTTCAAGCGCCATCTAC	0.87 RPM ratio (pull-down/input)
GATGATTGTTCTCCCAGCTGATGAATTGGTCATCTCGAGTAAACAAATTTTCCTAATCTTTCTGTTCAAGCGCCATCTAC	0.855 RPM ratio (pull-down/input)
GATGATTGTTCTCCCAGCTGATGAATTGGCTCGCTCGAGTAAACAAATTTTCCTAATCTTTCTGTTCAAGCGCCATCTAC	0.79 RPM ratio (pull-down/input)
GATGATTGTTCTCCCAGCTGATGAATTAAAAGCGTCGAGTAAACAAATTTTCCTAATCTTTCTGTTCAAGCGCCATCTAC	1.09 RPM ratio (pull-down/input)
GATGATTGTTCTCCCAGCTGATGAATTCAATGCATCGAGTAAACAAATTTTCCTAATCTTTCTGTTCAAGCGCCATCTAC	1.26 RPM ratio (pull-down/input)
GATGATTGTTCTCCCAGCTGATGAATTGGCCTCTTCGAGTAAACAAATTTTCCTAATCTTTCTGTTCAAGCGCCATCTAC	0.917 RPM ratio (pull-down/input)
GATGATTGTTCTCCCAGCTGATGAATTCCACAAATCGAGTAAACAAATTTTCCTAATCTTTCTGTTCAAGCGCCATCTAC	1.06 RPM ratio (pull-down/input)
GATGATTGTTCTCCCAGCTGATGAATTCGTTGGTTCGAGTAAACAAATTTTCCTAATCTTTCTGTTCAAGCGCCATCTAC	0.85 RPM ratio (pull-down/input)
GATGATTGTTCTCCCAGCTGATGAATTTCGGCTTTCGAGTAAACAAATTTTCCTAATCTTTCTGTTCAAGCGCCATCTAC	0.853 RPM ratio (pull-down/input)
GATGATTGTTCTCCCAGCTGATGAATTGTCTAGATCGAGTAAACAAATTTTCCTAATCTTTCTGTTCAAGCGCCATCTAC	0.981 RPM ratio (pull-down/input)
